Results on eleven compounds are retold here after the supplement of paper PMC4604168 (melanoma cell lines).

Some test systems named below: SkMel28; SkMel2; SkMel30; SkMel5; UACC257; UACC62; WM115; WM1716; WM1745; WM3526.
What all share (assay): cell count relative to DMSO control; melanoma cells; higher = more viable cells
Common to all, as to settings: library dose: standard library concentration; 72 h

This is one part of the list. Single values are uncertain, as repeats are few or missing.
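Note: cells treated in 1,536-well plates, then fixed and DAPI-stained, with nuclei counted from automated high-throughput microscope images.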

For the compound `O=C(Nc1cc(C(F)(F)F)cc(C(F)(F)F)c1)c1cc(Cl)ccc1O` + COc1ccc(Cl)c(Nc2nc3ccccc3nc2NS(=O)(=O)c2cccc(NC(=O)C(C)(C)N)c2)c1 [XL147] (first compound 0.08 µM, partner dose 4 µM), the cell count in the assay with SkMel28 turned out to be 92.8%; in the assay on SkMel2, 109%; with SkMel30, 129%; in the assay on SkMel5, 79.7%; in the assay with UACC257, 90%; with UACC62, 79.6%. The cell count with WM115 is 82.6%; with WM1716 it was 81.3%; in the assay on WM1745, 103%; in the assay with WM3526, 90.8%.

For `O=C(Nc1cc(C(F)(F)F)cc(C(F)(F)F)c1)c1cc(Cl)ccc1O` + C=CCNC1=C2C[C@@H](C)C[C@H](OC)[C@H](O)[C@@H](C)/C=C(\C)[C@H](OC(N)=O)[C@@H](OC)/C=C\C=C(/C)C(=O)NC(=CC1=O)C2=O [Tanespimycin] (first compound 0.08 µM, partner dose 0.01 µM), the cell count amounted to 77.1% in the assay with SkMel28; 95.8% in the assay on SkMel2; 113% in the assay on SkMel30; 86.5% with SkMel5; 93.7% in the assay on UACC257; 56.6% with UACC62. The cell count with WM115 came out at 34.4%; with WM1716 it was 76.5%; in the assay on WM1745 it was 56.7%; in the assay with WM3526, 86.4%.

As to `O=C(Nc1ccccc1)c1cc([N+](=O)[O-])ccc1Cl` + Oc1cc(-c2nc(-c3ccccc3)[nH]c2-c2ccncc2)ccc1Cl [L779450] (first compound 10 µM, partner dose 1 µM), the cell count in the assay on SkMel28 was determined as 43.4%; with SkMel2, 27.7%; in the assay on SkMel30, 73.5%; in the assay on SkMel5, 68.1%; in the assay on UACC257 it was 72.6%; with UACC62 it was 42.2%. For the same compound, the cell count with WM115 turned out to be 41.7%; with WM1716, 69.3%; in the assay on WM1745 it was 44.1%; with WM3526 it was 53.1%.

In the case of `O=C(O)c1ccc2c(c1)nc(Nc1cccc(Cl)c1)c1ccncc12` + C=CCn1c(=O)c2cnc(Nc3ccc(N4CCN(C)CC4)cc3)nc2n1-c1cccc(C(C)(C)O)n1 [MK1775] (first compound 2 µM, partner dose 0.1 µM), the cell count stood at 41.8% with SkMel28; 63.4% with SkMel2; 55.8% with SkMel30; 51.5% in the assay with SkMel5; 64.4% in the assay with UACC257; 66.3% in the assay on UACC62. The cell count came out at 67.8% in the assay on WM115, 79.6% in the assay on WM1716, 57.4% in the assay on WM1745 and 63.9% with WM3526.

As for `O=C(O)[C@@H]1[O][Sb](=[O])([O][Sb]2(=[O])[O][C@H]([C@H](O)CO)[C@H](O)[C@H](C(=O)O)[O]2)[O][C@H]([C@H](O)CO)[C@@H]1O` (stereo not given in full) [stibogluconate] + CCCS(=O)(=O)Nc1ccc(F)c(C(=O)c2c[nH]c3ncc(Cl)cc23)c1F [PLX4720] (first compound 10 µM, partner dose 0.4 µM), the cell count was 35% in the assay with SkMel28; 83.5% in the assay on SkMel2; 90.6% with SkMel30; 65.8% in the assay on SkMel5; 103% in the assay on UACC257; 58.1% with UACC62. Also, the cell count in the assay on WM115 is 84.9%; in the assay on WM1716, 62.3%; with WM1745 it was 85.5%; in the assay on WM3526, 53.6%.

`O=C(O)c1ccc2c(c1)nc(Nc1cccc(Cl)c1)c1ccncc12` + CN(C)S(=O)(=O)c1ccc2c(c1)/C(=C/c1cc3c([nH]1)CCCC3)C(=O)N2 [SU6656] (first compound 2 µM, partner dose 2 µM): the cell count in the assay with SkMel28 stood at 37.2%; in the assay with SkMel2 it was 76.3%; in the assay on SkMel30, 44.7%; in the assay with SkMel5, 67.1%; with UACC257, 53%; with UACC62 it was 72.5%. Further, the cell count was found to be 44.8% in the assay with WM115, 59.5% in the assay with WM1716, 45.1% in the assay with WM1745 and 50.1% with WM3526.

Consider `Cn1nnc2c(C(N)=O)ncn2c1=O` [temozolomide] + O=C(Nc1cccc(Cl)c1)Nc1ncc(CCNc2ncnc3ccsc23)s1 [SNS314] (first compound 10 µM, partner dose 0.004 µM), for which the cell count in the assay with SkMel28 worked out at 54.3%; with SkMel2, 94%; with SkMel30 it was 84.5%; with SkMel5 it was 110%; in the assay on UACC257, 77.5%; in the assay on UACC62, 87.7%. For the same compound, the cell count turned out to be 34.7% with WM115, 45% with WM1716, 80.1% in the assay with WM1745 and 69.3% in the assay on WM3526.

As for `O=C(Nc1cc(C(F)(F)F)cc(C(F)(F)F)c1)c1cc(Cl)ccc1O` + COc1cc2c(Oc3ccc4[nH]c(C)cc4c3F)ncnc2cc1OCCCN1CCCC1 [cediranib] (first compound 0.08 µM, partner dose 2 µM), the cell count in the assay on SkMel28 turned out to be 85.4%; in the assay on SkMel2, 83.4%; with SkMel30, 84.7%; in the assay on SkMel5, 61.6%; in the assay with UACC257, 65.7%; in the assay on UACC62, 64.1%. Also, the cell count was 86.7% in the assay on WM115, 87.2% in the assay with WM1716, 57.3% with WM1745 and 87.8% with WM3526.

As to `O=C(O)c1ccc2c(c1)nc(Nc1cccc(Cl)c1)c1ccncc12` + COc1cc2c(Oc3ccc4[nH]c(C)cc4c3F)ncnc2cc1OCCCN1CCCC1 [cediranib] (first compound 2 µM, partner dose 2 µM), the cell count with SkMel28 stood at 70.2%; in the assay with SkMel2, 64.1%; with SkMel30, 67.5%; in the assay on SkMel5, 67.3%; with UACC257, 98.3%; with UACC62, 58.6%. For the same compound, the cell count in the assay on WM115 was found to be 70.7%; with WM1716, 87.8%; in the assay on WM1745 it was 52.3%; with WM3526 it was 56.8%.

With `O=C(Nc1ccccc1)c1cc([N+](=O)[O-])ccc1Cl` + O=C(O)C(=O)Nc1sc2c(c1C(=O)O)CCNC2 [TCS401] (first compound 10 µM, partner dose 8.33333 µM), the cell count with SkMel28 turned out to be 49.5%; in the assay on SkMel2, 102%; in the assay with SkMel30, 95%; with SkMel5, 85.7%; with UACC257, 87.9%; with UACC62, 121%. For the same compound, the cell count with WM115 stood at 66.7%; in the assay on WM1716, 93.5%; in the assay on WM1745 it was 73.2%; in the assay on WM3526, 76.9%.

As for `O=C(Nc1cc(C(F)(F)F)cc(C(F)(F)F)c1)c1cc(Cl)ccc1O` + C[C@@H](N)c1ccc(C(=O)Nc2ccnc3[nH]ccc23)cc1 [RKI983] (first compound 0.08 µM, partner dose 2 µM), the cell count in the assay on SkMel28 stood at 91.5%; in the assay on SkMel2, 133%; with SkMel30, 107%; in the assay on SkMel5, 49.7%; in the assay with UACC257, 35.1%; in the assay with UACC62 it was 68.7%. Further, the cell count in the assay on WM115 was 100%; in the assay with WM1716, 29.8%; with WM1745, 55.9%; in the assay on WM3526, 93%.
